About 540 (0.36%) of roughly 150,000 compounds showed an effect of 50% or more. The list shows a part of the results.
These compounds were tested on Plasmodium falciparum (assay: Primary screen in NF54 nanoGlo assay, in single point, at 2uM, 72h; a lower Z score goes with more inhibition). Settings: timepoint 72 hour.
Assay type: functional, Erythrocyte

| Compound | % Inhibition [%] | Z score |
| --- | --- | --- |
| COc1ccc(C2CN(C(=O)C3CCCC3)CC2C(=O)N2CCCC2)c(OC)c1 (stereo not given) | -6 | 0.53 |
| O=C(NCc1nnc2ccccn12)NC1CC1c1cccc(F)c1 (stereo not given) | -6 | 0.65 |
| Cc1cc(C(=O)N[C@@H]2COCC[C@@H]2OCc2ccccc2)c(C)n1C | -7 | 1.44 |
| CC(C)[C@H](NS(=O)(=O)N1CCOCC1)c1nccn1C | -10 | 1.72 |
| CN(Cc1ccccc1)C(=O)C1C(c2ccc(NC(=O)c3ccc(F)cc3)cc2)OC(=O)N1Cc1ccccc1 (stereo not given) | 6 | -0.74 |
| COCc1cc(C(=O)N[C@H](c2ccccc2)C2CCOCC2)no1 | 38 | -5.54 |
| O=C(c1ccc2c(c1)OCO2)[C@H]1CCCN(C(=O)CCOc2ccccc2)C1 | 3 | -0.58 |
| O=C(NCc1ccc2c(c1)OCO2)N1CCN(c2nccs2)C(=O)C1 | 14 | -1.81 |
| C[C@H](NC(=O)N(C)Cc1nccs1)c1nnc(N)s1 | -5 | 1 |
| COCCCN(CC(=O)N(Cc1ccccc1)Cc1cccn1Cc1cccc(OC)c1)C(=O)c1ccc(Cl)cc1 | -11 | 1.26 |
| COc1cccc2c1OC[C@@H](C(=O)N(Cc1nccs1)C1CC1)C2 | -11 | 1.48 |
| Cn1ccc([C@H]2CCCN(C(=O)Cc3c(F)cccc3Cl)C2)n1 | -13 | 1.48 |
| CN(Cc1ccccc1)[C@H]1CCOC2(CCN(C(=O)c3ccoc3)CC2)C1 | -15 | 1.93 |
| Cc1cc(C)nc(NC(=O)N(C)CCCn2ccnc2)c1 | -3 | 0.39 |
| O=C(NCC(=O)N1CCc2ccccc2C1)c1ccco1 | -18 | 3.42 |
| CCc1cc(C#N)c(NC(=O)CCOC2CCOCC2)s1 | -17 | 3.4 |
| CCCc1occc1C(=O)N1CCO[C@@H](CF)C1 | -1 | 0.19 |
| COCCn1ccc(NC(=O)NCc2sc(C)nc2C)n1 | -3 | 0.67 |
| CC(C)Oc1ccc(C(=O)N2[C@@H](C)CCC2(C)C)nc1 | -13 | 1.93 |
| Cc1cnc(NC(=O)[C@H]2CCCN(c3ccc4nnnn4n3)C2)s1 | 4 | -0.46 |
| Cc1ccc(N2C[C@H](Cc3ccccc3)N(C(=O)c3ccc[nH]3)CC2=O)cc1 | -4 | 0.84 |
| O=C(c1cc(Cl)cc2c1OCC2)N1CCC(OC2CCC2)CC1 | -5 | 0.66 |
| CCc1nn(C)c2[nH]nc(NC(=O)C3CCN(CC(F)F)CC3)c12 | 5 | -0.82 |
| CC(C)[C@H]1C(=O)NCCN1CCOc1ccc(C(=O)O)cc1Cl | 0 | 0.01 |
| CCCNS(=O)(=O)c1ccc(C(=O)N2[C@@H]3CC[C@H]2C[C@@H](OC)C3)cc1 | 1 | -0.09 |
| CC(=O)N(CCc1noc(C2CCC2)n1)[C@H]1CCN(Cc2cn(C)c3ccccc23)C1 | -7 | 0.81 |
| O=C(Nc1nc(-c2ccncc2)ns1)c1ccncc1Cl | 7 | -0.9 |

| Compound | % Inhibition [%] | Z score |
| --- | --- | --- |
| COc1ccc2c(=O)c(C(=O)Nc3n[nH]c(C(C)C)n3)c[nH]c2c1 | 30 | -3.91 |
| O=C(NCc1noc(C2CC2)n1)N1CCC[C@H](c2ccc(F)c(F)c2)C1 | -7 | 1.17 |
| O=C(Nc1ccc(Cn2ccnc2)cc1)N1CCC[C@H](c2cc(F)ccc2F)C1 | 7 | -0.64 |
| CN1CCN([C@H]2CC(=O)N(c3ccc4c(c3)OCCO4)C2=O)CC1 | -8 | 1.15 |
| CC1=C(CN(C)[C@@H](C)CC(N)=O)C(C)(C)CCC1 | -2 | 0.24 |
| CC1CN(CC(=O)Nc2cccc3nonc23)CC(C)O1 (stereo not given) | 7 | -1.14 |
| COc1ccc(-c2cc(N)n(S(=O)(=O)c3cccc4nsnc34)n2)c(OC)c1 | -6 | 0.97 |
| Cn1cccc1C(=O)N1C[C@@H]2C[C@H](NC(=O)c3cccs3)[C@H]1C2 | 30 | -3.44 |
| COCC(=O)N[C@@H]1CC[C@H]2CCOc3ccccc3C(=O)N3CCN(Cc4ccc(F)cc4)C[C@H]3C(=O)NC[C@H]1O2 | -13 | 1.96 |
| O=C(O)[C@H]1C[C@@H]1C(=O)Nc1ccnn1Cc1ccc(Cl)c(F)c1 | 1 | -0.26 |
| Cc1ccc(NC(=O)CCNS(=O)(=O)c2ccc3nc(O)oc3c2)cc1N(C)C | -22 | 2.21 |
| Cc1cccc(-c2[nH]ncc2CN2CCC[C@H](CN3CCOCC3)C2)c1 | -11 | 1.68 |
| CC[C@@H](CCNS(=O)(=O)c1cnn(C(F)F)c1)n1nc(C(F)(F)F)cc1C | 7 | -0.85 |
| CC(=O)Nc1ccc(CN2C[C@@H]3CC[C@H]2CN(C2CCOCC2)C3)cc1 | -2 | 0.36 |
| CCCCO[C@@H]1O[C@H](CO)[C@@H](OC)[C@H](OC)[C@H]1NC(C)=O | -4 | 0.52 |
| CCCC(=O)N1CCC(C(=O)NC2CCCCCC2c2ccccc2C(F)(F)F)CC1 (stereo not given) | 29 | -3.97 |
| O=C(N/C(=N/c1ccccc1)N1CCN(c2ccc(F)cc2)CC1)c1ccccc1 | 1 | -0.18 |
| Nc1nc(CCNC(=O)C2(N3CCOCC3)CCCCC2)n[nH]1 | -10 | 1.76 |
| COc1cccc(Cn2c(C)c(C3=CCN(S(=O)(=O)c4ccc(CC(C)C)cc4)CC3)c3ccccc32)c1 | -9 | 1.25 |
| CC(=O)N1C[C@H]2CN(C(=O)CCC(C)C)C[C@@]2(C(=O)N2CCCC2)C1 | -4 | 0.56 |
| CN1CCC[C@H](C(=O)NCc2cccnc2Oc2ccc(F)cc2F)C1 | 0 | -0.04 |
| O=C(Nc1cccc2[nH]ncc12)N1CCC(N2CCOC2=O)CC1 | -4 | 0.65 |
| CCc1csc(-c2cn(CC(=O)NCc3ccc4c(c3)OCO4)cn2)n1 | -3 | 0.5 |
| COc1cccc(CNS(=O)(=O)c2cc(C(=O)N3CCOCC3)cs2)c1 | 10 | -1.76 |
| CC[C@H]1CCCCN1C(=O)CN1CCNCC1=O | -6 | 1.01 |
| O=C(c1cc2ncccn2n1)N1CCN(c2ncccn2)CC1 | -2 | 0.31 |
| CC(C)c1nccc(CN2CCOC[C@@H]2CO)n1 | -5 | 0.66 |

| Compound | % Inhibition [%] | Z score |
| --- | --- | --- |
| COC(=O)C(NC1CCN(c2ccc(Cl)cc2)C1)c1cccnc1 (stereo not given) | -6 | 0.77 |
| CCN(CC(=O)Nc1ccc2c(c1)OCCO2)C(=O)[C@H]1CCS(=O)(=O)C1 | -3 | 0.47 |
| O[C@H]1[C@H](NCc2ccc(Cl)c(Cl)c2)[C@H]2CO[C@H](O2)[C@@H]1n1cncn1 | 7 | -1.06 |
| COc1ccc(NC(=O)C2CCCN2CC2CCC(C)O2)cc1 (stereo not given) | -3 | 0.43 |
| COc1cccc(S(=O)(=O)N2CCN(c3nc4nccc(-c5cccc(C(F)(F)F)c5)n4n3)CC2)c1 | -10 | 1.42 |
| Cc1ccc(CN(CCN(C)C)C(=O)CCc2n[nH]c(C)c2C)s1 | 1 | -0.17 |
| CNC(=O)C(C)(C)N(C)Cc1ccc([C@@H]2CCCO2)s1 | 4 | -0.71 |
| O=C(Cc1c[nH]c2ccccc12)Nc1cnn(C[C@H]2COc3ccccc3O2)c1 | 19 | -2.46 |
| Cc1ccc(NC(=O)CN2C(=O)CCc3cc(S(=O)(=O)N4CCOCC4)ccc32)cc1N(C)C | -9 | 1.72 |
| CN(C)c1nc(CNC(=O)Cn2ncccc2=O)nc(N(C)C)n1 | -11 | 1.44 |
| CCN(CC)C[C@H]1CCCN(CC2OCCO2)C1 | -3 | 0.5 |
| Nc1nc2c(s1)[C@@H](c1ccc(OCc3ccccc3)cc1)CC(=O)N2 | 4 | -0.5 |
| CCc1nc(CN2CCC[C@H](S(=O)(=O)N(C)CCOC)C2)n[nH]1 | -49 | 5.71 |
| CCOc1ccc([C@@H]2CC(=O)NC(NC(=O)c3ccccc3F)=N2)cc1OC | 11 | -1.35 |
| O=C(COc1ccccc1)NC[C@@H]1C[C@H](F)CN1C(=O)c1ccsc1 | 20 | -2.67 |
| CCCn1cc(C2=CCN(S(=O)(=O)c3ccc(F)c(Cl)c3)CC2)c2cccnc21 | -22 | 2.94 |
| Cc1nn(C)c2c1N(C(=O)c1cc[nH]c1C1CCC1)CCO2 | -16 | 2.34 |
| Cc1c[nH]c2ccc(NC(=O)N3C[C@H](C)OC4(CCCCC4)C3)cc12 | -8 | 1.09 |
| CCC1CCC2(CC1)Nc1ccccc1-c1nc3ccccc3n12 (stereo not given) | 0 | -0.05 |
| COc1ccccc1CNC(=O)CN1CCC[C@H]1C(=O)N1CCOCC1 | -12 | 1.56 |
| Cn1ncc2c(N[C@H]3CCN(CCCc4ccccc4)C3=O)ccnc21 | -1 | 0.28 |
| O=C(NCCS(=O)(=O)NCc1ccoc1)OCc1ccccc1 | -12 | 1.35 |
| O=C(c1cccnc1)N(Cc1ccccc1)CC1(O)CCCC1 | -10 | 1.14 |
| CC(=O)N1CCc2ccc(OCc3nc(C(=O)NCCc4ccccn4)cs3)cc2[C@@H]1c1ccc(F)cc1 | -12 | 1.47 |
| CCOc1ccc(-c2cn(C3CN(c4nccnc4C#N)C3)nn2)cc1 | 13 | -1.7 |
| Cn1ncc2nnn(-c3ccccc3)c(=O)c21 | 36 | -4.88 |

— ChEMBL document CHEMBL4888484, “Replenishing the malaria drug discovery pipeline: Screening and hit evaluation of the MMV Hit Generation Library 1 (HGL1) against asexual blood stage Plasmodium falciparum ,using a nano luciferase reporter read-out” (2022)
